Laboratory results taken from the supplement of paper PMC4967469.
IC50 is the fitted dose that halves viability relative to control wells, and lower means more sensitive; where the fit passes the top or lowest dose, that dose stands as a limit. AUC, from the same fit, is the share of area under the viability curve across the 256-fold dose range; the more sensitive the line, the further below 1. Where the top dose is marked as inferred, it was derived from the fitted curves, not read from the paper.

compound: Cc1ccc(-c2c(C(=O)CF)n(CCCO)c3ncnc(N)c23)cc1 [FMK]; experiment: Viability of human cancer cell lines after 72 h of drug (GDSC screen); settings: top dose inferred
Procedure: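 Human cancer cell lines in 384-well plates, medium with 10% serum, drug for 72 h over a 256-fold dose range (nine 2-fold or five 4-fold steps up to the top dose). Adherent lines were fixed and stained with the nucleic acid dye Syto60, suspension lines read with resazurin; signal relative to control wells, capped at 0 and 100%. One two-parameter sigmoid per drug and line, fitted in a mixed model over all curves with the slope shared within a line.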

| Cell Line | AUC | IC50 [µM] |
| --- | --- | --- |
| SW1271 (small cell lung carcinoma, adherent, top dose 20 µM) | 0.966 | > 20 |
| SW1417 (large intestine, adherent, top dose 20 µM) | 0.98 | > 20 |
| SW1463 (large intestine, adherent, top dose 20 µM) | 0.976 | > 20 |
| SW1573 (lung adenocarcinoma, adherent, top dose 20 µM) | 0.981 | > 20 |
| SW1710 (bladder, adherent, top dose 20 µM) | 0.984 | > 20 |
| SW1783 (glioma, adherent, top dose 20 µM) | 0.99 | > 20 |
| SW1990 (pancreas, adherent, top dose 10.24 µM) | 0.983 | > 10.2 |
| Saos-2 (osteosarcoma, adherent, top dose 20 µM) | 0.981 | > 20 |
| SiHa (cervix, adherent, top dose 20 µM) | 0.987 | > 20 |
| T47D (breast, adherent, top dose 20 µM) | 0.95 | > 20 |
| T84 (large intestine, adherent, top dose 20 µM) | 0.984 | > 20 |
| T98G (glioma, adherent, top dose 20 µM) | 0.984 | > 20 |
| T-T (oesophagus, adherent, top dose 20 µM) | 0.986 | > 20 |
| TALL-1 (T-cell lymphoblastic leukaemia, suspension, top dose 20 µM) | 0.988 | > 20 |
| TC-71 (Ewing sarcoma, adherent, top dose 20 µM) | 0.988 | > 20 |
| TE-1 (oesophagus, adherent, top dose 20 µM) | 0.981 | > 20 |
| TE-5 (oesophagus, adherent, top dose 20 µM) | 0.976 | > 20 |
| TE-6 (oesophagus, adherent, top dose 20 µM) | 0.986 | > 20 |
| TE-8 (oesophagus, adherent, top dose 20 µM) | 0.984 | > 20 |
| TE-9 (oesophagus, adherent, top dose 20 µM) | 0.982 | > 20 |
| TE-10 (oesophagus, adherent, top dose 20 µM) | 0.983 | > 20 |

| Cell Line | AUC | IC50 [µM] |
| --- | --- | --- |
| TE-11 (oesophagus, adherent, top dose 20 µM) | 0.987 | > 20 |
| TE-12 (oesophagus, suspension, top dose 20 µM) | 0.982 | > 20 |
| TE-15 (oesophagus, suspension, top dose 20 µM) | 0.899 | > 20 |
| TGBC1TKB (biliary tract, adherent, top dose 20 µM) | 0.987 | > 20 |
| TGBC24TKB (biliary tract, adherent, top dose 20 µM) | 0.983 | > 20 |
| TGW (neuroblastoma, adherent, top dose 20 µM) | 0.99 | > 20 |
| THP-1 (acute myeloid leukaemia, suspension, top dose 20 µM) | 0.98 | > 20 |
| TK10 (kidney, adherent, top dose 20 µM) | 0.958 | > 20 |
| TK (B-cell lymphoma, suspension, top dose 20 µM) | 0.985 | > 20 |
| TOV-21G (ovary, adherent, top dose 20 µM) | 0.985 | > 20 |
| TOV-112D (ovary, adherent, top dose 20 µM) | 0.967 | > 20 |
| TT2609-C02 (thyroid, adherent, top dose 20 µM) | 0.973 | > 20 |
| TT (thyroid, adherent, top dose 20 µM) | 0.983 | > 20 |
| TUR (B-cell lymphoma, suspension, top dose 20 µM) | 0.987 | > 20 |
| TYK-nu (ovary, adherent, top dose 20 µM) | 0.981 | > 20 |
| U031 (kidney, adherent, top dose 20 µM) | 0.942 | > 20 |
| U251 (glioma, adherent, top dose 20 µM) | 0.985 | > 20 |
| U-2-OS (osteosarcoma, adherent, top dose 20 µM) | 0.967 | > 20 |
| U-87-MG (glioma, adherent, top dose 20 µM) | 0.981 | > 20 |
| U-118-MG (glioma, adherent, top dose 20 µM) | 0.986 | > 20 |
| U-698-M (B-cell leukaemia, suspension, top dose 20 µM) | 0.984 | > 20 |

| Cell Line | AUC | IC50 [µM] |
| --- | --- | --- |
| UACC-62 (melanoma, adherent, top dose 20 µM) | 0.988 | > 20 |
| UACC-257 (melanoma, adherent, top dose 20 µM) | 0.941 | > 20 |
| UACC-812 (breast, adherent, top dose 20 µM) | 0.99 | > 20 |
| UACC-893 (breast, adherent, top dose 20 µM) | 0.975 | > 20 |
| UM-UC-3 (bladder, adherent, top dose 20 µM) | 0.978 | > 20 |
| UMC-11 (lung carcinoid, adherent, top dose 20 µM) | 0.986 | > 20 |
| VA-ES-BJ (soft tissue, adherent, top dose 20 µM) | 0.985 | > 20 |
| VAL (B-cell lymphoma, suspension, top dose 20 µM) | 0.973 | > 20 |
| VM-CUB-1 (bladder, adherent, top dose 10.24 µM) | 0.988 | > 10.2 |
| VMRC-RCW (kidney, adherent, top dose 20 µM) | 0.986 | > 20 |
| VMRC-RCZ (kidney, adherent, top dose 20 µM) | 0.977 | > 20 |
| WIL2-NS (lymphoid neoplasm, suspension, top dose 20 µM) | 0.992 | > 20 |
| WM35 (melanoma, adherent, top dose 20 µM) | 0.969 | > 20 |
| WM278 (melanoma, adherent, top dose 20 µM) | 0.961 | > 20 |
| WM793B (melanoma, adherent, top dose 20 µM) | 0.893 | > 20 |
| WM1552C (melanoma, adherent, top dose 20 µM) | 0.925 | > 20 |
| WM-115 (melanoma, adherent, top dose 20 µM) | 0.976 | > 20 |
| WSU-DLCL2 (B-cell lymphoma, suspension, top dose 20 µM) | 0.993 | > 20 |
| WSU-NHL (lymphoid neoplasm, suspension, top dose 20 µM) | 0.979 | > 20 |
| YAPC (pancreas, adherent, top dose 20 µM) | 0.965 | > 20 |
| YH-13 (glioma, adherent, top dose 10.24 µM) | 0.98 | > 10.2 |
